Results from publication PMC12136788.
The list shows a part of the results.

B1: chr22:32879901:32879902:+_ENSG00000100225_ENST00000397426|hu_mus|hu_hu_hu_mus_False|58_58 (ssRNA)
RNA: GGGAGUUCUACAGUCCGACGAUCCUCUUCCAUACUCAUGGCAUCCUGAAUUGACUCAGCUUCAACAUUUUGACUAGGCCCUAACAUACUGUCAUCAGUCCAGGCAUCAAAUGGGGUGGCCUGUCCUUGGGAUGAAUCAGUCCCCAACAGAGGAUUGAGCAUCA
B2: chr8:95500983:95500984:-_ENSG00000164944_ENST00000437199|hu_hu|hu_hu_hu_mus_True|48_98 (ssRNA)
RNA: GGGAGUUCUACAGUCCGACGAUCAGAACACAUCUAUUCGUGUAAAGACCGUACAUGACGGCCUCUACCACUGCCUCCACUAACAAAACUUUCCUCUGAGCCUCCACUGCCGCUAUUUGUACUAGCCCAGGACGGUCCCAGGCCCAACAGAGGAUUGAGCAUCA
B3: chr16:46991118:46991119:-_ENSG00000069345_ENST00000563158|hu_hu|FALSE|FALSE (ssRNA)
RNA: GGGAGUUCUACAGUCCGACGAUCUCCUCUGUUUCUCCAAUUAUGUUAGGAACUUCCGGUCUAGAUGGCAGAAGAUCUUCUAGUUCAGAAAGCUUGUCUGGGUUGAUCCAGUUGUUUUCAGGAAACUGCACAUCAAACUUUAUGCAACAGAGGAUUGAGCAUCA
B4: chr7:141438946:141438947:+_ENSG00000106028_ENST00000265304|hu_mus|hu_hu_hu_mus_True|28_88 (ssRNA)
RNA: GGGAGUUCUACAGUCCGACGAUCGACGAAAUACCUGUAACACAGGUGAAACAUGGCUGGCUUCUGUUUUUCUUACAACCUAAUCUUUAGGCUUUUCCUAAAGGAAAAACCCGAGCAAGAAAAAUGAUAAAUCAAGAAACUACACAACAGAGGAUUGAGCAUCA
B5: 138452885_138453005_684_CDS_ENSG00000189184_ENST00000344876|human|control|control (ssRNA)
RNA: GGGAGUUCUACAGUCCGACGAUCCUGCAGAUGCUCUGUGGGUAGAGUGAUCACAUCAAACUCUAUGGAACAGUUCAAGUUUUUCUGGCACAGUUGUUCACGGUCAAUUGUAGCCCCUAUGCUGAUUUCCCCAUUAUCCUCGUUCAACAGAGGAUUGAGCAUCA
B6: chr7:141445308:141445309:+_ENSG00000106028_ENST00000265304|hu_hu|hu_hu_hu_mus_False|18_48 (ssRNA)
RNA: GGGAGUUCUACAGUCCGACGAUCUAUGAUUGUUGUUGCUUGCCGCCUCACAUUGUUUUUAUCCAUGUACUCGCCAUAGUCCACUUUCCCUUCCAAAAAUAUACGAGCCCCCUUUUUCACAUAUUGAUAUGCCACAUCUCUGAGCAACAGAGGAUUGAGCAUCA
B7: chr10:94956308:94956309:-_ENSMUSG00000062981_ENSMUST00000075829|mus_hu|motif|central (ssRNA)
RNA: GGGAGUUCUACAGUCCGACGAUCCCGAGGGAUAGGUUUUGUGUGUUCAUAUGGAAUGUCCACAGAAGGGUGGUAGCAUACGGUUGUCCUGCCAUCAGAAGUCAGAGCAAGCUCUACGUUGCAAUUAUAGUCAUCUGGUAGAGGCAACAGAGGAUUGAGCAUCA
B8: chrX:148369136:148369137:+_ENSMUSG00000025261_ENSMUST00000112622|mus_hu|FALSE|FALSE (ssRNA)
RNA: GGGAGUUCUACAGUCCGACGAUCUGCAAAGGCUACUGCCUUUUUAAAACACAUGGGGUGGGGAUCAUGGACGGCAUGGAAAGGGGAGAGAAGGUGAGGAAACAGGCGGCGGGGAGAGAAUGAGAAGAGGAACAGGUAUGCGCUCAACAGAGGAUUGAGCAUCA
B9: chr12:42180722:42180723:-_ENSMUSG00000036295_ENSMUST00000043884|mus_hu|mus_mus_mus_hu_True|68_108 (ssRNA)
RNA: GGGAGUUCUACAGUCCGACGAUCCUGUAGGAGCAGAAUCUGUGUGUUAGCUGGCAAUCUGGCUGGGAAGUUUAAAAGACCUAAAUCAUUACAAUCCACUGUAGAUGCUUCCAUAUAAAUGGAUCUGGGUGUAAACCAAGGCCUCAACAGAGGAUUGAGCAUCA
B10: chr19:30113593:30113594:+_ENSMUSG00000024817_ENSMUST00000025739|mus_mus|FALSE|FALSE (ssRNA)
RNA: GGGAGUUCUACAGUCCGACGAUCUUUAACCUGAGCAUCAUUCUGCUUAGAUGUGCUAGGAAGACUGGAGUCUGGACGAACUAGCAGCUGAAUUAUAUCAUUCAGUCCAACGUCGUAGUCAAAUAAAGUAUAUCCAUUUUCCAACAACAGAGGAUUGAGCAUCA
B11: chr16:45382771:45382772:-_ENSMUSG00000022661_ENSMUST00000163230|mus_mus|FALSE|FALSE (ssRNA)
RNA: GGGAGUUCUACAGUCCGACGAUCGAGAGUGUUAUUGUGGGCCCAAUGGAUAGGGAGAGCAUGCUUUUGUAAAGAUGUGAACUACUCACUAAGACUAACAAUAUUGCCUAAGUGCUAUAAAAAUAAGUUAAAUGGACACAUUACCAACAGAGGAUUGAGCAUCA
B12: chr4:144460044:144460045:+_ENSG00000153147_ENST00000283131|hu_mus|hu_hu_hu_mus_False|18_48 (ssRNA)
RNA: GGGAGUUCUACAGUCCGACGAUCACGGUCCAUAGCCUGAAGAUCAACUUGCGGAUUCCAAUCUGAGUCAUAUAAAAUGACUACAUCAGCAGUCGCAAGAUUGAUGCCCAGACCACCAGCACGCGUGCUUAGCAUAAAUACAAACAACAGAGGAUUGAGCAUCA
B13: chr1:46159521:46159522:+_ENSG00000159596_ENST00000372025|hu_hu|FALSE|FALSE (ssRNA)
RNA: GGGAGUUCUACAGUCCGACGAUCUUUUUAUACUUGACCAGGUCUCUUAUGUCCUUUUUCUGGAAAACUACUUUUAACUACUAAAGUGAUUAUAAAUGAAAAAGUGGCCAAUAAAGUGACUACUAUCCUCAGGGCUUUAAACCACAACAGAGGAUUGAGCAUCA
B14: chrX:40531158:40531159:-_ENSG00000180182_ENST00000324817|hu_hu|FALSE|FALSE (ssRNA)
RNA: GGGAGUUCUACAGUCCGACGAUCAUGCAGAUUUCCUGGAGACUGUGUGUGCAUCAUUGAGGGAGACUGAUUGACUGUGCUAUGAUAAGAUGUAGGGGGUGAAGUAAGAGGAUAAGCACCUGAUGUUCCUGGCUGCUUUGGAAACAACAGAGGAUUGAGCAUCA
B15: chr7:65705475:65705476:+_ENSG00000169902_ENST00000304842|hu_mus|FALSE|FALSE (ssRNA)
RNA: GGGAGUUCUACAGUCCGACGAUCUCUAUUCGGUGAUGGCACUCCAUGGCAUGCUGGCCCAGGUAAAACACGGUCACAGAACUAAUCACCAGACACGCCAAGAGUAAGUUCUGCUUCAGCUUCCCAACCAUCUUGAUGUGGUUACAACAGAGGAUUGAGCAUCA
B16: chr7:151048522:151048523:+_ENSG00000013374_ENST00000566856|hu_mus|hu_hu_hu_mus_True|58_58 (ssRNA)
RNA: GGGAGUUCUACAGUCCGACGAUCCUGUUUCUUAUUUAUUACGAUCUUGAUGUAAUUUUCUUGAAAUCCGAAAGUUUCAGCUAUUUUACACCUCAGGUCUCUACCAGUGACAUGCAAGCGGGUCUCCAACAAGCUUUUCUUAUCCAACAGAGGAUUGAGCAUCA
B17: chrX:98838459:98838460:+_ENSMUSG00000034160_ENSMUST00000044475|mus_hu|motif|central (ssRNA)
RNA: GGGAGUUCUACAGUCCGACGAUCCCCCAAAUUCGAAUAAGCUUCUGCCAGAAGGGGGUUCUGUUUAAUUGCCAGAGUGCGGAAGUGAGCAGAUCUGUCCAGCCUUCGACACUGGAAGUGUAUAGAUGAAAGUAAUAAAAGCACCAACAGAGGAUUGAGCAUCA
B18: chrX:140365796:140365797:-_ENSMUSG00000031285_ENSMUST00000033642|mus_mus|mus_mus_mus_hu_False|1_98 (ssRNA)
RNA: GGGAGUUCUACAGUCCGACGAUCCUUCUCAUUACUCAAUGCCUGCAAGGUUCUGGUUCGGUAGAAGCUACAGUGGGCGCUGUGAGUGGGGCUAGGCAACCCAUUCAUCCGGGAGCCUCGCAUGUUCCUGGAUGUCUUGUCUCGCAACAGAGGAUUGAGCAUCA
B19: chr9:128067362:128067363:+_ENSG00000165219_ENST00000394104|hu_hu|motif|central (ssRNA)
RNA: GGGAGUUCUACAGUCCGACGAUCAAACUUUCCAAGGCUGCUCUUUGUUCGGGGAUCUCCCUCUUCAGAGCCAGUCAUUGCGGACUGCUGCAAAAGGCGGCCUACCUGCAUCAGAUUAAAUCGUGCUACUUCAUUAAUAGGAGCCAACAGAGGAUUGAGCAUCA
B20: chr5:172341789:172341790:+_ENSG00000113719_ENST00000393784|hu_mus|FALSE|FALSE (ssRNA)
RNA: GGGAGUUCUACAGUCCGACGAUCGGGAACCUUGUUGAUGCUGAACUGGCCCUCGAAGCGGCAGCCGGCUCCAUUAUUCAGCGGGAUCUUCAUGGAAUUGUCGAUGUGGCCCACUUCGUGUCUGCCCAUCUCAUCUUGGAUGUCCAACAGAGGAUUGAGCAUCA
B21: chr2:179988524:179988525:-_ENSG00000187231_ENST00000428443|hu_mus|FALSE|FALSE (ssRNA)
RNA: GGGAGUUCUACAGUCCGACGAUCUAAAGUUUGCUGAAUCGAUGCUCCAUCAGCUGGUGCUACAUCUACGCACAACAUCCCUAAUAAGCCGUCCAACUGCUGAGACAAAUCUUGGGCCACACCAUGAAAUUCCAAAGCUGCCUGCAACAGAGGAUUGAGCAUCA
B22: chr7:135839355:135839356:+_ENSMUSG00000042105_ENSMUST00000151237|mus_hu|FALSE|FALSE (ssRNA)
RNA: GGGAGUUCUACAGUCCGACGAUCCUCCUAGGUUUACAUUGUAUAGGCAGCAGAGUAUUUUUAAUGUGUUCAAGUAGAAUACGGGGAAAAUUAGGAUCAAAUGAGAAUUCAUUUCUCUAGUGUCAAUAACCCUCAACUCCUCAGCAACAGAGGAUUGAGCAUCA

These binders were tested against T1, UNK ZnF1-3 (human, UniProt Q9C0B0 31-174) (assay: nsRBNS (natural sequence RNA bind-n-seq); RBNS binding buffer (assumed for nsRBNS): 25 mM Tris pH 7.5, 150 mM KCl, 3 mM MgCl2, 0.01% Triton X-100, 500 ug/ml BSA, 20 U/ml SUPERase-In, 4 C; UNK is unkempt and MSI1 is Musashi-1; names of the RNAs are library labels; protein concentration not given here; high values mean tight binding).
T1 sequence: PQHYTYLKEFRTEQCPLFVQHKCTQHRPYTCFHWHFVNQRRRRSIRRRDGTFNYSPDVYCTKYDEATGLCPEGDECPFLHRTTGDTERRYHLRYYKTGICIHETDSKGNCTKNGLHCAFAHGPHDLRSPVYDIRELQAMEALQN
In the case of B1, the binding signal is reported as 1.17 enrichment R.
Binder B2 has a binding signal of 1.05 enrichment R.
Binder B3 has a binding signal of 0.757 enrichment R.
B4 gave a binding signal of 0.714 enrichment R.
In the case of B5, the binding signal is reported as 0.858 enrichment R.
With B6 the binding signal was 0.845 enrichment R.
B7 gave a binding signal of 0.944 enrichment R.
For B8, the binding signal was 1.98 enrichment R.
B9 was tested, and the binding signal was 1.1 enrichment R.
In the case of B10, the binding signal is reported as 2.06 enrichment R.
In the case of B11, the binding signal is reported as 2.33 enrichment R.
Binder B12 has a binding signal of 0.732 enrichment R.
Work on B13 yielded a binding signal of 1.11 enrichment R.
Work on B14 yielded a binding signal of 2.46 enrichment R.
B15 showed a binding signal of 0.629 enrichment R.
For B16, the binding signal was 0.727 enrichment R.
B17 gave a binding signal of 2.19 enrichment R.
B18 was tested, and the binding signal was 0.667 enrichment R.
For B19, the binding signal was 0.692 enrichment R.
B20 gave a binding signal of 0.637 enrichment R.
Binder B21 has a binding signal of 1.07 enrichment R.
For B22, the binding signal was 1.35 enrichment R.
